Values marked as one replicate rest on one cluster of the flow cell; about a third of the high ones do not repeat.
test system: ATP; experiment: switch fluorescence ratio, 500 uM ATP over buffer (Cy3 cluster intensity, sum of 5 cycles each) (fold (ratio)); higher = stronger signal-on switching upon ATP binding; sequences stand for … in TCGTCGGCAGCGTCAGATGTGTATAAGAGACAGTTTTTTTTTTTTTTTTTTTTTTTTT…TC; settings: aptamer strand: ATP DNA aptamer (quencher-CACCTGGGGGAGTATTGCGGAGGAAGG + anchor), 100 nM annealed; ATP concentration: 500 uM; one replicate
Summary of the method: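 Per cluster, summed Cy3 intensity from the target cycles was divided by that from the buffer cycles to give the fluorescence ratio, then averaged per switch-domain sequence. Clusters outside 100-1000 RFU were excluded. The Cy3-labelled switching-strand clusters, on a modified Illumina MiSeq flow-cell, were annealed to 100 nM quencher-labelled ATP aptamer and imaged in selection buffer, then after 15 min with 500 uM ATP at 22 °C, for five cycles with NaOH stripping and re-annealing between them.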
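Further: ATP exposure 15 min at 22 °C before imaging.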

Q: How did the switch fluorescence ratio turn out when GGCCATCCGA was run?
A: 1.03

Q: For GGCCATGGCG, which switch fluorescence ratio is on record?
A: 1.01

Q: How did the switch fluorescence ratio turn out when GGCCCAGTTC was run?
A: 0.999

Q: For GGCCCATGTG, which switch fluorescence ratio is on record?
A: 1.93

Q: With GGCCCATTTG as the sequence, how does the switch fluorescence ratio read?
A: 1.03

Q: Which switch fluorescence ratio does the source give for GGCCCATTTT here?
A: 0.98

Q: With GGCCCGAGGA as the sequence, how does the switch fluorescence ratio read?
A: 1.05

Q: With GGCCCTGAGT as the sequence, how does the switch fluorescence ratio read?
A: 1.02

Q: GGCCCTTTG was tested. Which switch fluorescence ratio did it give?
A: 0.92

Q: How did the switch fluorescence ratio turn out when GGCCGAAGCT was run?
A: 1.02

Q: How did the switch fluorescence ratio turn out when GGCCGACTTA was run?
A: 1.02

Q: With GGCCGATTTG as the sequence, how does the switch fluorescence ratio read?
A: 1.01

Q: With GGCCGGCGCA as the sequence, how does the switch fluorescence ratio read?
A: 0.99

Q: For GGCCGGGCTG, which switch fluorescence ratio is on record?
A: 0.981

Q: For GGCCGGTGTG, which switch fluorescence ratio is on record?
A: 1.02

Q: With GGCCGTAGAC as the sequence, how does the switch fluorescence ratio read?
A: 1.17

Q: Which switch fluorescence ratio does the source give for GGCCGTATCA here?
A: 0.977

Q: GGCCTACAAA was tested. Which switch fluorescence ratio did it give?
A: 1

Q: For GGCCTACTTG, which switch fluorescence ratio is on record?
A: 0.973

Q: How did the switch fluorescence ratio turn out when GGCCTCACGA was run?
A: 1.05

Q: Which switch fluorescence ratio does the source give for GGCCTCCATC here?
A: 1.06

Q: With GGCCTGTTGG as the sequence, how does the switch fluorescence ratio read?
A: 0.964

Q: With GGCCTTTTAC as the sequence, how does the switch fluorescence ratio read?
A: 1.04

Q: GGCGAAGATG was tested. Which switch fluorescence ratio did it give?
A: 0.989

Q: How did the switch fluorescence ratio turn out when GGCGAATAAT was run?
A: 0.997

Q: For GGCGAATTTA, which switch fluorescence ratio is on record?
A: 1.04

Q: For GGCGACGTGG, which switch fluorescence ratio is on record?
A: 1.01

Q: Which switch fluorescence ratio does the source give for GGCGAGTCCT here?
A: 0.985

Q: Which switch fluorescence ratio does the source give for GGCGATAATG here?
A: 0.969

Q: With GGCGATCCTC as the sequence, how does the switch fluorescence ratio read?
A: 1.12

Q: GGCGCCACGT was tested. Which switch fluorescence ratio did it give?
A: 0.991

Q: For GGCGCCATTG, which switch fluorescence ratio is on record?
A: 0.995

Q: For GGCGGAAGTG, which switch fluorescence ratio is on record?
A: 0.99

Q: With GGCGGACGGC as the sequence, how does the switch fluorescence ratio read?
A: 0.999

Q: How did the switch fluorescence ratio turn out when GGCGGCAAGG was run?
A: 1.01

Q: GGCGGCCATT was tested. Which switch fluorescence ratio did it give?
A: 1.01

Q: For GGCGGCCTAC, which switch fluorescence ratio is on record?
A: 1.01

Q: How did the switch fluorescence ratio turn out when GGCGGCTACT was run?
A: 1.01

Q: GGCGGCTTG was tested. Which switch fluorescence ratio did it give?
A: 0.962

Q: With GGCGGGAATA as the sequence, how does the switch fluorescence ratio read?
A: 1.08

Q: How did the switch fluorescence ratio turn out when GGCGGGCCAT was run?
A: 1.09

Q: For GGCGGTAAGG, which switch fluorescence ratio is on record?
A: 1

Q: With GGCGTAAGAA as the sequence, how does the switch fluorescence ratio read?
A: 0.983

Q: GGCGTACCGG was tested. Which switch fluorescence ratio did it give?
A: 1.02

Q: How did the switch fluorescence ratio turn out when GGCGTAGAGT was run?
A: 0.936

Q: With GGCGTAGGAA as the sequence, how does the switch fluorescence ratio read?
A: 1

Q: Which switch fluorescence ratio does the source give for GGCGTCAAGA here?
A: 0.989

Q: How did the switch fluorescence ratio turn out when GGCGTGGAGG was run?
A: 1.04

Q: For GGCGTTTAGC, which switch fluorescence ratio is on record?
A: 1.07

Q: GGCTAAAGTG was tested. Which switch fluorescence ratio did it give?
A: 0.961

Q: For GGCTAACCTC, which switch fluorescence ratio is on record?
A: 1.02

Q: With GGCTAATAGG as the sequence, how does the switch fluorescence ratio read?
A: 1.03

Q: Which switch fluorescence ratio does the source give for GGCTAATTAT here?
A: 0.952

Q: GGCTACTGAA was tested. Which switch fluorescence ratio did it give?
A: 1.06

Q: How did the switch fluorescence ratio turn out when GGCTAGCTTG was run?
A: 1.01

Q: For GGCTAGGGAT, which switch fluorescence ratio is on record?
A: 0.971

Q: GGCTATAGTG was tested. Which switch fluorescence ratio did it give?
A: 1

Q: GGCTCAATGT was tested. Which switch fluorescence ratio did it give?
A: 0.961

Q: With GGCTCAGACG as the sequence, how does the switch fluorescence ratio read?
A: 0.931

Q: How did the switch fluorescence ratio turn out when GGCTCAGTA was run?
A: 0.987

Q: How did the switch fluorescence ratio turn out when GGCTCATCTA was run?
A: 1.01

Q: Which switch fluorescence ratio does the source give for GGCTCCCCGT here?
A: 1.14

Q: For GGCTCGCCTA, which switch fluorescence ratio is on record?
A: 0.951

Q: How did the switch fluorescence ratio turn out when GGCTCGCGAT was run?
A: 1.51

Q: For GGCTCGTTAA, which switch fluorescence ratio is on record?
A: 0.989

Q: For GGCTCTACTA, which switch fluorescence ratio is on record?
A: 1.2

Q: How did the switch fluorescence ratio turn out when GGCTCTCGT was run?
A: 1.02

Q: For GGCTCTGTAA, which switch fluorescence ratio is on record?
A: 2

Q: Which switch fluorescence ratio does the source give for GGCTCTTGTT here?
A: 1.02

Q: For GGCTGAATTT, which switch fluorescence ratio is on record?
A: 0.985

Q: For GGCTGCCTAC, which switch fluorescence ratio is on record?
A: 1.06

Q: Which switch fluorescence ratio does the source give for GGCTGCCTC here?
A: 1.03

Q: For GGCTGCTATT, which switch fluorescence ratio is on record?
A: 1.01

Q: How did the switch fluorescence ratio turn out when GGCTGGGGAC was run?
A: 0.994

Q: Which switch fluorescence ratio does the source give for GGCTGGTGGG here?
A: 1.01

Q: Which switch fluorescence ratio does the source give for GGCTGTGGCT here?
A: 0.959

Q: For GGCTTAAAAT, which switch fluorescence ratio is on record?
A: 0.988

Q: GGCTTAAAGC was tested. Which switch fluorescence ratio did it give?
A: 0.996

Q: With GGCTTAGGGT as the sequence, how does the switch fluorescence ratio read?
A: 0.983

Q: Which switch fluorescence ratio does the source give for GGCTTATGCG here?
A: 0.984

Q: Which switch fluorescence ratio does the source give for GGCTTGATTT here?
A: 0.998

Q: With GGCTTGTAGG as the sequence, how does the switch fluorescence ratio read?
A: 1.04

Q: With GGCTTTATCA as the sequence, how does the switch fluorescence ratio read?
A: 0.988

Q: How did the switch fluorescence ratio turn out when GGCTTTCAGT was run?
A: 1

Q: GGGAAAAGCC was tested. Which switch fluorescence ratio did it give?
A: 0.999

Q: GGGAAACAGT was tested. Which switch fluorescence ratio did it give?
A: 1.01

Q: Which switch fluorescence ratio does the source give for GGGAAATAAT here?
A: 1.06

Q: With GGGAACAATA as the sequence, how does the switch fluorescence ratio read?
A: 0.985

Q: For GGGAACCGGC, which switch fluorescence ratio is on record?
A: 1.03

Q: GGGAACGCGT was tested. Which switch fluorescence ratio did it give?
A: 0.883

Q: With GGGAACGTAA as the sequence, how does the switch fluorescence ratio read?
A: 1.13

Q: Which switch fluorescence ratio does the source give for GGGAACGTTG here?
A: 1.01

Q: Which switch fluorescence ratio does the source give for GGGAAGGAGA here?
A: 0.967

Q: How did the switch fluorescence ratio turn out when GGGAAGGCTT was run?
A: 1.03

Q: How did the switch fluorescence ratio turn out when GGGAAGTGCA was run?
A: 0.984

Q: For GGGAATCACG, which switch fluorescence ratio is on record?
A: 0.999

Q: GGGAATCCAG was tested. Which switch fluorescence ratio did it give?
A: 0.976

Q: GGGAATCTGA was tested. Which switch fluorescence ratio did it give?
A: 1.01

Q: Which switch fluorescence ratio does the source give for GGGACAACAT here?
A: 0.974

Q: GGGACATTGG was tested. Which switch fluorescence ratio did it give?
A: 0.98

Reference: the supplement of paper PMC10126150
